Some of the results follow. Measured with an extract: partners may take part in the binding.
test system: PU.1 (endogenous, THP-1 nuclear extract) + IRF8 (endogenous, THP-1 nuclear extract); experiment: nuclear extract protein-binding microarray (nextPBM); conditions: 20 mM HEPES pH 7.9, 100 mM NaCl, 1 mM DTT, 0.2 mg/mL BSA, 0.02% Triton X-100, 2% milk, 0.4 mg/mL salmon testes DNA; 1 h; temperature not stated; high values mean tight binding; double strand, one strand shown; sequences stand for … in GCCTAGCAC…GTGCTAGGTCTTGATTCGCTTGACGCTGCTG

Q: How did the binding signal turn out when TGACATTGCAAACACATGGC was run?
A: 0.0452 z-score

Q: For AGAAGCGAGTAGGTGGGGAG, which binding signal is on record?
A: 1.57 z-score

Q: With TGTATAATACAAAGCAAAAG as the sequence, how does the binding signal read?
A: -2.07 z-score

Q: With GTACCACATTCGAAATTGAA as the sequence, how does the binding signal read?
A: 0.175 z-score

Q: How did the binding signal turn out when CAAGGCTGACTGTGGAACCC was run?
A: 0.523 z-score

Q: Which binding signal does the source give for TCGAGCATCTCCATCTTTCT here?
A: -0.0744 z-score

Q: Which binding signal does the source give for ATGGGTTCCTTGAATTTCAG here?
A: 0.305 z-score

Q: TTTAAAGCTGCATGAAACTG was tested. Which binding signal did it give?
A: 2.67 z-score

Q: How did the binding signal turn out when TAGATGACTGCGTGAAACTC was run?
A: 0.677 z-score

Q: How did the binding signal turn out when AGAGAGATGTGACTTGTCCA was run?
A: 0.668 z-score

Q: CCAGTGCCATATAAACAATA was tested. Which binding signal did it give?
A: -0.334 z-score

Q: How did the binding signal turn out when GCCCTGGGTTTCACTGGCCT was run?
A: 2.12 z-score

Q: With TGCATTGCCTGGCCGGGTGA as the sequence, how does the binding signal read?
A: 0.659 z-score

Q: For CGAAAAGCTGCATGAAACCA, which binding signal is on record?
A: 2.34 z-score

Q: Which binding signal does the source give for GTCACTCTCAGATACTGCCA here?
A: 1.12 z-score

Q: GGGAGAGGCAGGAAGGAGCC was tested. Which binding signal did it give?
A: 0.506 z-score

Q: How did the binding signal turn out when AGCCCCAAGGCCGCTTGCCC was run?
A: 2.13 z-score

Q: With CTGGAGGATCCTTCTGCGCA as the sequence, how does the binding signal read?
A: 0.342 z-score

Q: With GAAGGAGGGAAGAGGCTGGA as the sequence, how does the binding signal read?
A: 0.0588 z-score

Q: How did the binding signal turn out when GCTGCTCCCTCTTTTCTTCC was run?
A: 1.41 z-score

Q: With TGAGTTATGATCATGCCACT as the sequence, how does the binding signal read?
A: -0.345 z-score

Q: For CCGGGTTCAAGCGATTCTCC, which binding signal is on record?
A: -0.477 z-score

Q: Which binding signal does the source give for TCTCAAAGCAGCTTGAAGCG here?
A: -0.667 z-score

Q: GGGAGATTTCAGGCACTTCC was tested. Which binding signal did it give?
A: -0.31 z-score

Q: CAAAGTTCTGTCTTCATGGA was tested. Which binding signal did it give?
A: 0.169 z-score

Q: ACTTGTGAAGGAAATGAATC was tested. Which binding signal did it give?
A: -0.0286 z-score

Q: For CCAGCCTGGCCAAAGTGGTG, which binding signal is on record?
A: 0.547 z-score

Q: AGGGAGCAGCCTCCTGACTT was tested. Which binding signal did it give?
A: 0.806 z-score

Q: GAAAGGACTGCGTGAAACTA was tested. Which binding signal did it give?
A: 5.37 z-score

Q: Which binding signal does the source give for ACAGAGTCTTGCTCTGTCGC here?
A: 0.853 z-score

Q: Which binding signal does the source give for TTTATGGAAATAGCGGTTTT here?
A: -0.233 z-score

Q: For CAGGGCACTGCGTGAAACCC, which binding signal is on record?
A: 1.9 z-score

Q: Which binding signal does the source give for AAAGTTTCCAAAAGCTCCTG here?
A: -0.239 z-score

— paper PMC6451091
